The chains are these.
B1: LINE1-full (parent)
chain: UACGUAGGUGGUUUUCCCCUGAUAGUGCUAAGGGGGCCUGGAAGUUUGGACUGGGCAGAGCUCAACACAGCGUGGCAAAGUGGCUGUGGCUAGACUGCCUCUCUGGAUUCCUCGUCACUCAGCAGGGCAUCUCUGAGAGAAAUGCC

Read counts are not given, so values of variants with three or more changes are uncertain.

In this series the parent is B1. The series can be described thus: self-cleavage, relative activity (ratio to wild type); higher = more cleavage; in vitro, sequencing; the parent is a self-cleaving ribozyme.
In the case of UACGUAGGUGGUUUUCCCCUGAUAGUGCUAAGGGGGCCUGGGAGUUUGGACUGGGCAGAGCUCAACACAGCGUGGCAAAGCGGCUGUGGCUAGACUGCCUCUCUGGAUUCCUCGUCACUCAGCGGGGCAUCUCUGAGAGAAAUGCC [A42G U81C A124G], the self-cleavage was determined as 0.

For the variant UACGUAGGCGGUUUUCCCCUGAUAGUGCUAAGGGGGCCUGGAGGUUCGGACUGGGCAGAGCUCAACACAGCGUGGCAAAGUGGCUGUGGCUAGACUGCCUCUCUGGAUUCCUCGUCACUCAGCAGGGCAUCUCUGAGAGAAAUGCC [U9C A43G U47C], the self-cleavage was 2.83.

For the variant UACGUAGGUGGUUUUCCCCCGAUAGUACUAGGGGGGCCUGGAAGUUUGGACUGGGCAGAGCUCAACACAGCGUGGCAAAGUGGCUGUGGCUAGACUGCCUCUCUGGAUUCCUCGUCACUCUGCAGGGCAUCUCUGAGAGAAGUGCC [U20C G27A A31G A121U A142G], the self-cleavage turned out to be 1.31.

For UACGUGGGUGGUUAUCCCCUGAUAGUGCUAAGGGGGCCUGGAAGUUCGGACUGGGCAGAGGUCGACACAGCGUGGCAAAGUGGCUGUGGCUAGACUGCCCCUCUGGAUUCCUCGUCACUCAGCAGGGCUUCUCUGAGAGAAAUGCC [A6G U14A U47C C61G A64G U100C A129U], the self-cleavage was found to be 0.77.

UACGUAGGUGGUUUUCCCCUGAUAGUGCUUAGGGGGCCUGGAAGUUUGGACUGGGCAGAGCUCAACACAGCGUGGCAAAGUGCCUGUGGCUAGACUGCCUCUCUGGAUUCCUCGUCACUCAGCAGGGCAUCCCUGAGAGAAAUGCC [A30U G83C U132C]: the self-cleavage was found to be 1.33.

UACGUAGGUGGUUUUCCCCUGAUAGUGCUAAGGAGGUCUGGAAGUUUGGACUGGGCAGAGCUCAACCCAGCGUGGCAAAGUGGCUGUGGCUAGACUGCCUCUCUGGAUUCCUCGUCACUCAGCAGGGCAUCUCUGAGAGAAAUGCC [G34A C37U A67C]: the self-cleavage came to 0.07.

On to UACGUAGGUGGUUUUCCCCUGAUAGUGCUAAGGGGGCCUGGAAGUUUGGACUGGGCAGAGCUCAACACAGCGUGGCAAAGUGGCUGUGGCUAGACUGCCUCUCCGGAUUCCUCGACACUCAGCAGGGCAUCUCUGAGAGGAAUGCC [U104C U115A A140G], for which the self-cleavage came to 1.31.

For the variant UACGUAGGUGGUUUUCCCCUGAUAGUGCUAAGGGGGCCCGGAAGUUUGGACUGGGCAGAGCUCAACACAGCGUGGCAAAGUGGCUGUGGCUAGACCGCCUCUCUGGAUUCCUCGUCACUCAGCAGGGCAUCCCUGAGAGAAAUGCC [U39C U96C U132C], the self-cleavage was 0.12.

UACGUAGGUGGUUUUCCCCUGAUAGUGCUAAGGGGGCCAGGAAGUUUGGACUGGGCAGAGCUCAACACAGCGUGGCAAAGUGGCUGUGGCUAGACUGCCUCUCUGGAUUCCUCGUCUCUCAGCAGGGCAUCUCUGAGAGAAGUGCC [U39A A117U A142G]: the self-cleavage is 1.5.

In the case of UACGUAGGUGGUUUUCCCCUGAUAGUGCUAAGGGGGCCUGGAAGUUUGGACUGGGCAGAGCUCAACACAGCGUGGCAAGGUGGCUGUGGCUAAGCUGCCUCUCUGGAUUCCUCGUCACCCAGCAGGGCAUCUCUGAGAGAAAUGCC [A79G G93A A94G U119C], the self-cleavage was found to be 0.

Regarding UACGUAGGUGGUUUUCCCCUGAUAGUGCUAAGGGGGCCUGGAAGUUUGGACUGGGCAGAGCUCAACACAGAGAGGCAAAGCGGCUGUGGCUAGACUGCCUCUCUGGAUUCCUCGCCACUCAGCAGGGCAUCUCUGAGAGAAAUGCC [C71A U73A U81C U115C], the self-cleavage worked out at 0.12.

For UACGUAGGUGGUUUUCCCCUGAUAGUGCUAAGGGGGCUUGGAAGUCUGGACUGGGCAGAGCUCAACACAGCGUGGCAAAGUGGCUGUGGCUAGACUGCCUCUCUGGAUUCCUCGUCACCCAGCAGGGCAUCUCUGAGAGAAAUGCC [C38U U46C U119C], the self-cleavage came to 1.28.

In the case of UACGUAGGUGGUUCUCCCCUGAUAGUGCUAAGGGGGCCUGGAAGUUUGGUCUGGGCAGAGCUCAACACAGCGUGGCAAAGUGGCUGUGGCUAGACUGCCUCUCUGGAUUCCUCGUCACCCAGCAGGGCAUCUCUGGGGGAAAUGCC [U14C A50U U119C A136G A138G], the self-cleavage is 1.71.

For UACGUAGGUGGUUUUCCACUGAUAGUGCUAAGGGGGCCUGGAAGUUUGGACUGGGCAGAGCUCAACACAGCGUGGCAAGGUGGCUGUGGCUAGACUGCCUCUCUGGAUUACUCGUCACUCAGCAGGGCAUCUCUGAGAGAAAUGCC [C18A A79G C110A], the self-cleavage was found to be 0.19.

Take UACGUAGGUGGUUUUCCCCUGAUAGCGCUAAGGGGGCCUGGAAGUUUGGACUGGGCAGAGCUCAACACAGCGUGGCAAAGUGGUUGUGGCUAGACUGCCUCUCUGGAUUCCUCGUCACUCAGCGGGGCAUCUCUGAGAGAAAUGCC [U26C C84U A124G]: the self-cleavage stood at 0.1.

With UACGUAGGUGGAUUCCCCCUGGUAGUGCUAAGGGGGCCAGGAAGUUUGGACUGGGCAGAGCCCAACACAGCGUGGCAAAGUGGCUGUGGCUAGACUGCCCCUCUGGAUUCCUCGUCACUCAGCAGGGCAUCUCAGAGAGAAAUGCC [U12A U15C A22G U39A U62C U100C U134A], the self-cleavage turned out to be 0.

With UACGUAGGUGGUUUUCCCCUGAUAGUGCUAAGGGGGCCUAGAAGUUUGGACUGGGCAGAGCUCAACGCAGCGUGGCGAAGUGGCUGUGGCUAGACUGCCUCUCUGGAUUCCUCGUCACUCAGCAGGGCAUCUCUGAGAGAAGUGCC [G40A A67G A77G A142G], the self-cleavage is 0.25.

With UACGUAGGUGGUUAUCCCCUGAUAGUGCUAAGGGGGCCAGGAAGUUUGGACUGGGCAGAACUCAACACAGCGUGGCAAAGUGGCUGUGGCUAGGCUGCCUCUCUGGAUUCCUCGUCACUCAGCAGGGCAUCUCUGAGAGAAAUGCC [U14A U39A G60A A94G], the self-cleavage is 0.42.

Turning to UACGUAGGUGGUUUUCCCCCGAUAGUGCUAAGGGGGCCUGGAAGUUUGGACUGGGCAGAGCUCAACACAGCGUGGCAAGGUGGCUGUGGCUAGACUGCCUCUCUGGAUCCCUCGUCACUCAGCAGGGCAUCUCUGAGAGAAAUGCC [U20C A79G U109C], the self-cleavage turned out to be 2.18.

The values above are taken from the RNAGym collection of RNA variant scans (doi:10.7554/elife.90254).
